Data published in PubChem BioAssay AID1671188 (National Center for Advancing Translational Sciences (NCATS), 2021).
The whole screen tested about 100,000 compounds, of which about 250 (0.25%) were called active. The shares of active, inactive and inconclusive entries below differ from those in the screen. Calls follow the shape of the dose curve; as a rule, active = well fitted inhibition curve with a large enough effect; inconclusive = small, poorly fitted or top-dose-only effect; inactive = flat fitted curve, though single readings scatter. Potencies of inconclusive entries are left out as doubtful fits.

biological target: Alanine aminotransferase 2 (Homo sapiens) (UniProt Q8TD30); test: Primary qHTS assay for inhibitors of Glutamate pyruvate transaminase 2 (GPT2); details: Recombinant GPT2, coupled pyruvate oxidase/HRP Amplex Red fluorescence; activity change, negative = inhibition: at 57.7 µM (top of the series) unless noted; series mostly up to 57.7 µM; also: nearly all actives have a fitted effect of over 60% in size
UniProt Q8TD30, sequence (Q8TD30 whole entry, looked up): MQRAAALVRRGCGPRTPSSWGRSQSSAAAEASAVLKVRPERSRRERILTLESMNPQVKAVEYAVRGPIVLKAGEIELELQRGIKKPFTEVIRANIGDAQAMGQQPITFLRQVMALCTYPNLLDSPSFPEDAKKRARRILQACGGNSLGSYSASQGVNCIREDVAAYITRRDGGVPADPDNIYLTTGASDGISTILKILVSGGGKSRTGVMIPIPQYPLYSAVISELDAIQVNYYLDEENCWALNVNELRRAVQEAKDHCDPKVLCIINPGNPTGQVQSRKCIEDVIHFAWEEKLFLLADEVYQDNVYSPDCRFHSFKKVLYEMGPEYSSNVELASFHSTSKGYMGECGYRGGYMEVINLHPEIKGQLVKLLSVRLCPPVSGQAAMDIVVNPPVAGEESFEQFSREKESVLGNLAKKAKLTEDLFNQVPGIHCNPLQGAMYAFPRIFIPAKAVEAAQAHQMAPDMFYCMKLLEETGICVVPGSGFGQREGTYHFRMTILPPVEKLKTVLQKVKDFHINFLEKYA
How it was run: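 Fluorescence of coupled pyruvate oxidase/HRP/Amplex Red system (50uM Amplex, 30 min, dark) reports pyruvate formed by GPT2. Enzyme reaction: 10ng/uL GPT2, 2mM L-alanine, 250uM a-KG, 30 min room temperature, pH 7.5; 50uM AOA control.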
% is scaled to controls: 0 for no effect and ±100 for the full control effect; potency is read from the fitted curve at half-maximal effect; tags tell the direction and shape of the fitted curve.

SMILES	Potency	activity change, negative = inhibition
O=C(Cc1cccc(F)c1)N1CCC2(CC1)NC(=O)N(c1ccccc1Cl)N2	inconclusive [inhibitor, partial curve, poor fit]	–
COc1ccc(CC(=O)NC2CCN(Cc3ccc(-c4ccccc4OC)cc3)C2)cc1 (stereo not given)	inactive	–
O=C(NCc1ccc(F)cc1)C1CCCCN1Cc1ccc(-c2ccsc2)cc1 (stereo not given)	inconclusive [inhibitor, single point]	–
CCCC1(CO)CCCN(Cc2nc(C)no2)C1 (stereo not given)	inconclusive [inhibitor, partial curve, poor fit]	–
CCn1cc(CN(C)C(=O)c2cc(-c3ccc(OC)cc3)cn2CC)c(C)n1	inconclusive [inhibitor, single point]	–
Cc1nn(CC(=O)N2CCN(c3ccccc3F)CC2)c(=O)c2nc(C(C)C)sc12	inconclusive [inhibitor, partial curve, poor fit]	–
COCCC1(C(=O)O)CCCN(CCN2CCCC2=O)C1 (stereo not given)	inconclusive [inhibitor, full curve, poor fit]	–
Cn1cc(-c2cnc3[nH]cc(CC(=O)N4CCCC4)c3c2)cn1	inconclusive [inhibitor, full curve, poor fit]	–
COc1ccc(CCC(=O)N2C[C@@H](Oc3cccnc3)C[C@H]2C(=O)N2CCOCC2)cc1	inactive	–
CCc1nccn(Cc2nnc(C3CC(N)C3)n2CCOC)c1=O (stereo not given)	inconclusive [inhibitor, partial curve, poor fit]	–
COc1ccc(C(=O)NC2CCN(c3cn[nH]c(=O)c3)CC2)c(OC)n1	inconclusive [inhibitor, partial curve, poor fit]	–
CCCCCN1CCC2(CC1)Cc1ccccc1CNC2=O	inconclusive [inhibitor, single point]	–
CC(C)CNC(=O)N1CCCOCCNC(=O)[C@@H]2CCC[C@@H]21	inconclusive [inhibitor, single point]	–
CC[C@H]1CN(C(=O)Nc2cccc(C(F)(F)F)c2)CC[C@H]1CC(=O)N(C)CCC#N	inconclusive [inhibitor, single point]	–
CC1(CCOC2OC(CO)C(O)C(O)C2O)CCC23OC2(C1)C(O)CC1C(C)(C(=O)O)CCCC13C (stereo not given)	inconclusive [inhibitor, single point]	–
COCC1CN(C)CC12CCN(C(=O)CN1CCCCCC1)CC2 (stereo not given)	inactive	–
O=C(Nc1ccccc1)N1Cc2[nH]cnc2C[C@H]1c1nc(-c2ccccc2)no1	inactive	–
O=C(c1n[nH]c2ccccc12)N1CCC(c2nc(C3CCOCC3)no2)CC1	inconclusive [inhibitor, single point]	–
CC(C)CN1CC[C@H](c2nc3ccccc3n2C)C1	inactive	–
FC(F)(F)c1ccc(CN2CC(Oc3ccc4c(c3)OCO4)C2)cc1	inconclusive [inhibitor, single point]	–

SMILES	Potency	activity change, negative = inhibition
O=C(c1ccccn1)N1CCCC2(CNc3ccccc3[S+](=O)([O-])N2)C1 (stereo not given)	inconclusive [inhibitor, single point]	–
Cn1cccc1CN1CCC2(CC1)NC(=O)c1ccccc1O2	inconclusive [inhibitor, partial curve, poor fit]	–
O=C(O)COc1ccc(-c2nccc3c2C(=O)N(Cc2cccc(C(F)(F)F)c2)CC(CNC(=O)C2CCOCC2)O3)cc1 (stereo not given)	inactive	–
O=C(c1cccc(F)c1)N1CCCCCC1CN1CCOCC1 (stereo not given)	inconclusive [inhibitor, single point]	–
O=C(NCCOc1ccccc1)c1cnc2n1CCN(Cc1c[nH]c3ccccc13)CC2	inactive	–
CC(C)Oc1ccc(C(=O)N2Cc3cnn(Cc4ccc(F)cc4)c3C2)cc1	–	inactive: 2.68% [at 11.5 µM]
Cn1cccc1CN1C[C@@H](CO)[C@H](c2ccncc2)C1	inconclusive [inhibitor, full curve, poor fit]	–
CCC(C(C)O)n1ncn(-c2ccc(N3CCN(c4ccc(OCC5COC(Cn6cncn6)(c6ccc(F)cc6F)C5)cc4)CC3)cc2)c1=O (stereo not given)	inconclusive [inhibitor, partial curve, poor fit]	–
COc1cc2nc(-c3ccc(N4CCN(C)CC4)cc3)nc(NCCN3CCOCC3)c2cc1OC	inconclusive [inhibitor, full curve]	–
Cn1ncc2c(C(=O)NCCc3ccc(Cl)cc3)cc(-c3ccc(Cl)nc3)nc21	inactive	–
Cc1ccc(CN2CCCC(CNS(=O)(=O)C3CC3)C2)cc1C (stereo not given)	–	inactive: -2.41% [at 11.5 µM]
Cc1noc([C@@H]2CC(F)(F)CN2C(=O)c2ccco2)n1	inactive	–
N#Cc1cccnc1-c1ccc(C(=O)N2CCC(N[S+](=O)([O-])c3ccccc3)CC2)cc1	inconclusive [inhibitor, partial curve, poor fit]	–
COc1cccc(CNC(=O)Nc2cccc(-c3ccc(N4CCOCC4)nn3)c2)c1	inconclusive [inhibitor, full curve, poor fit]	–
COc1cccc(C(=O)N2CCC3(CC2)NC(=O)N(c2cccc(F)c2)N3)c1	inconclusive [inhibitor, partial curve, poor fit]	–
COc1ccc(-c2cc(N3CCC(NC(=O)c4ccccc4C)C3)n[nH]2)cc1 (stereo not given)	inconclusive [inhibitor, partial curve]	–
CCCCc1ccc(NC(=O)Cn2ccn3nc(-c4ccc(F)cc4)c(CO)c3c2=O)cc1	inconclusive [inhibitor, single point]	–
CC(C)n1cnc2c(-c3cnc(N)nc3)nc(N3CCOCC3)nc21	inconclusive [inhibitor, single point]	–
CCOC(=O)N1CCC(N[C@@H]2CC[C@@H]2NC(=O)c2cnc3cccnn23)CC1	inconclusive [inhibitor, single point]	–
Cc1ccc(-c2cc(N3CCCN(C(=O)c4ccc5c(c4)OCO5)CC3)n[nH]2)cc1C	inconclusive [inhibitor, partial curve, poor fit]	–
